Experimental data taken from paper PMC10726135.
This is one part of the list. At the low end of the ranking the order means little. The protein was read in a cell extract, so binding may be indirect.

Target: T1, HNF4alpha2 (COS-7 nuclear extract) (UniProt P41235)
T1 sequence: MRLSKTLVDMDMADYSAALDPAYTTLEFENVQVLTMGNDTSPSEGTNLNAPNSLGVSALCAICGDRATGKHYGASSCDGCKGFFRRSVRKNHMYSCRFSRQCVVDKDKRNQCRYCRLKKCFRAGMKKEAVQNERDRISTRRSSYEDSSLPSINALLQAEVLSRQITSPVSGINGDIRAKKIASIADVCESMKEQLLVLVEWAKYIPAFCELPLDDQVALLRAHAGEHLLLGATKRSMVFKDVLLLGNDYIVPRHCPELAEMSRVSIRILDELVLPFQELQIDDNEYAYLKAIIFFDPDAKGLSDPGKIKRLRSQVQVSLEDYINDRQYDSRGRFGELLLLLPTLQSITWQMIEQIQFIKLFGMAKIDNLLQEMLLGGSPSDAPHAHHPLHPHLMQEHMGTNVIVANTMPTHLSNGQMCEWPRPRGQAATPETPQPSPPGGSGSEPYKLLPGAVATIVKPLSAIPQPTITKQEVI
Experiment: protein-binding microarray
Conditions: COS-7 nuclear extract on double-stranded Agilent 4x180k PBM; binding buffer, salt, pH and temperature not given; high values mean tight binding; double strand, one strand shown; sequences stand for … in …GCCTAGGGAGATTAGAGTATCGGTCGA

How did the binding signal (log2 normalized intensity) turn out when CTTAGCCAAAGAGAAGCCTAAGCAGGGCTA was run?
Its binding signal (log2 normalized intensity) is -1.11.

For TATTTCAGCTTTGACGCCACCTGAAGGCAG, which binding signal (log2 normalized intensity) is on record?
The binding signal (log2 normalized intensity) was -1.22.

Which binding signal (log2 normalized intensity) does the source give for TGTCATCTAGACCTGGACTTGAAGCCAGAC here?
The binding signal (log2 normalized intensity) was -0.168.

Which binding signal (log2 normalized intensity) does the source give for CCACACGTCCCCTTCATGTTTTCACCAAGA here?
Its binding signal (log2 normalized intensity) is 0.569.

With AGCAATCATATATGCATTTGTCTCAGGTGG as the sequence, how does the binding signal (log2 normalized intensity) read?
Its binding signal (log2 normalized intensity) is 1.86.

With ACAACAAAGGAAATGAAGCAACACTTTCTG as the sequence, how does the binding signal (log2 normalized intensity) read?
The binding signal (log2 normalized intensity) was -1.08.

How did the binding signal (log2 normalized intensity) turn out when GAGGTCTGGACCCTTGGCACTTTCACGATA was run?
The binding signal (log2 normalized intensity) was 0.675.

For TCAAATTACAAGGAGATATGCACTTGCCCT, which binding signal (log2 normalized intensity) is on record?
Its binding signal (log2 normalized intensity) is 2.16.

With TCTTTGATTAGGAAAGGGAACTCCCTGACC as the sequence, how does the binding signal (log2 normalized intensity) read?
The binding signal (log2 normalized intensity) was -0.639.

For GGTCTAAACCTACTTAGATCAAGATTTTCA, which binding signal (log2 normalized intensity) is on record?
Its binding signal (log2 normalized intensity) is -1.19.

Which binding signal (log2 normalized intensity) does the source give for TTGCATCAGCTGGGCTCGGCGCTCCGCTTA here?
The binding signal (log2 normalized intensity) was -1.19.

GGATTTTGGAGCCAAACAGGTGTGGGTTCA was tested. Which binding signal (log2 normalized intensity) did it give?
Its binding signal (log2 normalized intensity) is 1.92.

Which binding signal (log2 normalized intensity) does the source give for GGCAATATCTCCCAGCTGGAGTCTTCTCTA here?
The binding signal (log2 normalized intensity) was -1.01.

Which binding signal (log2 normalized intensity) does the source give for ATTTAACCTGTATTAGGAAATTGTCAGTGC here?
Its binding signal (log2 normalized intensity) is 1.36.

Which binding signal (log2 normalized intensity) does the source give for GTGCGCTGCCCCTCACTGCCCAGCCTCTCC here?
Its binding signal (log2 normalized intensity) is 3.24.

Which binding signal (log2 normalized intensity) does the source give for GGCAAGGCCTCGTGAAAGTTAACTTTGTAA here?
Its binding signal (log2 normalized intensity) is 0.851.

AAAGTCCAACACAGAAGCCTTTTGTTCTTT was tested. Which binding signal (log2 normalized intensity) did it give?
Its binding signal (log2 normalized intensity) is 1.77.

For AACCTTTGCCCCCCTGGGCTCAAGCGATCC, which binding signal (log2 normalized intensity) is on record?
The binding signal (log2 normalized intensity) was 5.28.

Which binding signal (log2 normalized intensity) does the source give for AAAACTACACTCTTGCTAAACCCTCTAACA here?
The binding signal (log2 normalized intensity) was -1.16.

For ACTTTGCTGTGTCCCACAGGGAAAGTATGG, which binding signal (log2 normalized intensity) is on record?
Its binding signal (log2 normalized intensity) is 0.199.

AAGGAGCCTAACTTTGATAGGCACAATCAG was tested. Which binding signal (log2 normalized intensity) did it give?
The binding signal (log2 normalized intensity) was -1.12.

How did the binding signal (log2 normalized intensity) turn out when TATGACGGTGTATGCTCTCAGTGCTAACAC was run?
Its binding signal (log2 normalized intensity) is -0.7.

For TGCCCGAGCTGCCCTTTATCTCCTCTCTTC, which binding signal (log2 normalized intensity) is on record?
Its binding signal (log2 normalized intensity) is 1.55.

TGTGCTGTGGCTGCCAAGACACAGAGAAAA was tested. Which binding signal (log2 normalized intensity) did it give?
Its binding signal (log2 normalized intensity) is -1.22.

Which binding signal (log2 normalized intensity) does the source give for TCTGCTATCTAAAAGCTTATCTGCACAATG here?
Its binding signal (log2 normalized intensity) is -1.24.

TTTCTTGTCTGCCCCAGGGCTTTGCAGGGA was tested. Which binding signal (log2 normalized intensity) did it give?
The binding signal (log2 normalized intensity) was 1.68.

AATAGAGCTCTAAACCACCCAATCCTGCAG was tested. Which binding signal (log2 normalized intensity) did it give?
Its binding signal (log2 normalized intensity) is 1.91.

GGGGGCAGGGCTGGTCGGATGGCCGTGGGT was tested. Which binding signal (log2 normalized intensity) did it give?
Its binding signal (log2 normalized intensity) is -1.06.

For CTCACTGACTTCCATCAATGAAGCATATCA, which binding signal (log2 normalized intensity) is on record?
Its binding signal (log2 normalized intensity) is -1.17.

How did the binding signal (log2 normalized intensity) turn out when TATCTTGATCAGAAAAGAAAGTGAGGAATG was run?
The binding signal (log2 normalized intensity) was -1.16.

CCAAAAGCTTTACTAAAACAGGGAGCAGGC was tested. Which binding signal (log2 normalized intensity) did it give?
The binding signal (log2 normalized intensity) was -1.09.

With AGCAAAGGGCAGATAACAAGGGCATGTAAA as the sequence, how does the binding signal (log2 normalized intensity) read?
Its binding signal (log2 normalized intensity) is -0.955.

With CAGATCCACATCGAAGGCCAAGGGATTTCA as the sequence, how does the binding signal (log2 normalized intensity) read?
The binding signal (log2 normalized intensity) was -1.24.

Which binding signal (log2 normalized intensity) does the source give for GTGGAGGGCGTGTAGGGAGTGGTTCCCACA here?
The binding signal (log2 normalized intensity) was -0.931.

With CAAAGTACACTTGGAGAAAAAAAACCATTG as the sequence, how does the binding signal (log2 normalized intensity) read?
The binding signal (log2 normalized intensity) was -0.754.

Which binding signal (log2 normalized intensity) does the source give for CTCCAAGGTACTGTGAACTCCAGCTGGGCA here?
Its binding signal (log2 normalized intensity) is -0.764.

With CCAACACAGAAGCCTTTTGTTCTTTGTGTG as the sequence, how does the binding signal (log2 normalized intensity) read?
Its binding signal (log2 normalized intensity) is 1.42.

For CAAAGGTCAACAGCCAGCCTCAAAGATCAA, which binding signal (log2 normalized intensity) is on record?
The binding signal (log2 normalized intensity) was 2.58.

With AATGTCAGCCTGCTCAGGGAGAAGCAAATA as the sequence, how does the binding signal (log2 normalized intensity) read?
Its binding signal (log2 normalized intensity) is -0.932.

With ATGTGGTCCTAAGACTAACCTTTGACCATC as the sequence, how does the binding signal (log2 normalized intensity) read?
The binding signal (log2 normalized intensity) was 7.45.
